Source: PubChem BioAssay AID686979 (National Center for Advancing Translational Sciences (NCATS), 2013)
Among all 420,000 compounds or so, about 50,000 (12%) were called active. The inconclusive results got no clear call from the source; some entries with a clear call stand among them for comparison. The call rests on the fitted dose curve; in most records, active means well fitted inhibition curve with a large enough effect; inconclusive means small, poorly fitted or top-dose-only effect; inactive means flat fitted curve, though single readings scatter. No potency is given beside an inconclusive call; the fits are too rough.

Experiment: qHTS for Inhibitors of human tyrosyl-DNA phosphodiesterase 1 (TDP1): qHTS in cells in presence of CPT; further: nearly all actives have a fitted effect of over 55% in size
Details: chicken DT40 Tdp1-/-;hTDP1 cells + 20 nM CPT, ATP luminescence, 48 h; activity change, negative = growth inhibition: at 46.2 µM (top of the series) unless noted
Summary of the method: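 Cell growth measured by CellTiter-Glo luminescence after a minimum 48 h, 37 C compound exposure with 20 nM CPT in Tdp1-knockout DT40 cells stably expressing hTDP1, seeded 400/well; qHTS titration format.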
On the % scale 0 is the no-effect control and ±100 the full control effect; potency means the concentration at half of the fitted maximal effect; tags describe the fitted curve by direction and shape.

Row | Compound | Potency | activity change, negative = growth inhibition
1 | CSC1=Nc2sc3c(c2C2=NCCN12)CC(C)(C)OC3 | inconclusive [inhibitor, single point] | 
2 | CCc1ccc2[nH]c3nc(SCCN4CCOCC4)nnc3c2c1 | inconclusive [inhibitor, single point] | 
3 | O=C(CSc1nc(-c2ccccc2)cs1)NCCN1C(=O)CSC1=O |  | inactive: -2.01%
4 | CCc1nc2c(OCc3ccc(C(F)(F)F)cc3)cccn2c1N(C)C(=O)CC(C)C | inconclusive [inhibitor, single point] | 
5 | CCN(CC)S(=O)(=O)c1ccc(N2CCOCC2)c(NC(=O)Cc2cccc3ccccc23)c1 | inconclusive [inhibitor, single point] | 
6 | COc1ccc(C(=O)NCCOc2ccccc2Cl)c(OC)c1OC | inconclusive [inhibitor, single point] | 
7 | OCCNCC(O)CN1c2ccccc2Sc2ccccc21 (stereo not given) | inconclusive [inhibitor, partial curve] | 
8 | COc1ccc(NS(=O)(=O)c2cccc(-c3nnc4n3CCCCC4)c2)cc1 |  | inactive: -21.6%
9 | O=C1c2ccccc2-c2nnc(-c3ccc(F)cc3)cc21 | inconclusive [inhibitor, partial curve] | 
10 | CCc1ccc(C#CC2=CC(=O)CC(C)(C)C2)cc1 | inconclusive [inhibitor, single point] | 
11 | CCc1nc2ccc(C(=O)Nc3cccc(NS(C)(=O)=O)c3)cn2c1N(C)CCCc1ccccc1 | inconclusive [inhibitor, single point] | 
12 | CC(C)(C)C(=O)N/C(N)=N/c1nc2ccccc2o1 | inconclusive [inhibitor, single point] | 
13 | COCCN(C(=O)C(C)C)c1nnc(-c2ccc(C(C)(C)C)cc2)s1 | active: 20.6 µM | 
14 | COc1ccc(CNC(=O)c2ccc(NC(=O)N3CC4CCCN4c4ccccc43)cc2)cc1 (stereo not given) | inconclusive [inhibitor, single point] | 
15 | Cc1ccc(-n2ncc(C(=O)NCCc3ccccc3)c2C2CCN(C(=O)OC(C)(C)C)CC2)c(C)c1 | inconclusive [inhibitor, single point] | 
16 | COc1ccccc1C(=O)N(CCN(C)C)c1nc2cc(C)cc(C)c2s1 | inconclusive [inhibitor, single point] | 
17 | COc1ccccc1-c1nn(Cc2ccccc2)cc1C(=O)NCC(c1ccco1)N1CCCC1 (stereo not given) | inconclusive [inhibitor, single point] | 
18 | O=C(/C=C/c1ccc(F)cc1)NC(=S)N1CCN(Cc2ccccc2)CC1 | inconclusive [inhibitor, single point] | 

Row | Compound | Potency | activity change, negative = growth inhibition
19 | COc1ccc(NC(=O)CCCCC#Cc2ccccc2)cc1 | inconclusive [inhibitor, single point] | 
20 | CCOc1cc(/C=N\NC(=O)c2ccc(NC(=O)C(C)(C)C)cc2)ccc1OC(=O)c1ccc(OC)cc1 | inconclusive [inhibitor, partial curve] | 
21 | Cc1c(C#N)c(NC(=O)COC(=O)c2cc(Cl)c3c(c2)OCCCO3)n(Cc2ccco2)c1C | inconclusive [inhibitor, full curve, poor fit] | 
22 | O=C(Nc1ccccc1)c1ccc(N2CCN(c3ccccc3)CC2)c(S(=O)(=O)N2CCOCC2)c1 |  | inactive: 7.33%
23 | O=C1c2ccccc2-c2nc3ccccc3nc21 | inconclusive [inhibitor, single point] | 
24 | CCCCN1CN(Cc2ccco2)CNC1=S |  | inactive: 12.4%
25 | COc1ccc(Nc2c(-c3ccc(C)o3)nc3ccccn23)cc1 | inconclusive [inhibitor, single point] | 
26 | Cc1ccc(-n2c(-c3ccncc3)n[nH]c2=S)cc1 |  | inactive: 0.4%
27 | COc1ccc2c(C)cc(=O)oc2c1C |  | inactive: -15.7%
28 | Cc1ccsc1/C=C/C1=Cc2c(sc(NC(=O)CSc3n[nH]c(N)n3)c2C#N)C(C)(C)C1 | active: 23.1 µM | 
29 | COC(=O)c1ccc(CN2CCc3ccc(NC(=O)c4ccncc4)cc3C2)cc1 | inconclusive [inhibitor, single point] | 
30 | CCCCNC(=O)C[C@@H]1C[C@@]2(C(=O)OCC)CCC=C2N(Cc2ccccc2)C1=O |  | inactive: -29.5%
31 | COc1ccc(NC(=O)C2CC23CCN(Cc2cccc4ncccc24)CC3)cc1Cl (stereo not given) |  | inactive: -29.1%
32 | C#CCOc1ccc(/C=C2/C(=O)ON=C2C)cc1Br | active: 23.1 µM | 
33 | COc1ccc(Cn2c(=N)c(C(=O)NCC3CCCO3)cc3c(=O)n4ccccc4nc32)cc1 (stereo not given) | inconclusive [inhibitor, single point] | 
34 | CCN1CCCc2cc(CN(CCN3CCOCC3)C(=S)Nc3cccc(C)c3)ccc21 | active: 16.4 µM | 
35 | O=c1cc(CN2CCN(c3cccc(C(F)(F)F)c3)CC2)nc2sccn12 | inconclusive [inhibitor, single point] | 
